In all, about 360,000 compounds went through this assay and about 11,000 (3.1%) were called active. The inconclusive results got no clear call from the source; some entries with a clear call stand among them for comparison. Calls come from the whole dose curve; as a rule, active = well fitted inhibition curve with a large enough effect; inconclusive = small, poorly fitted or top-dose-only effect; inactive = no such curve, though single readings can be large or run the other way. Potencies of inconclusive entries are left out as doubtful fits.
target: Schistosoma mansoni thioredoxin glutathione reductase (TGR) (UniProt Q962Y6); test: qHTS Assay for the Inhibitors of Schistosoma Mansoni Peroxiredoxins; conditions: purified TGR, DTNB reduction, TNB absorbance 405 nm; activity change, negative = inhibition: at 114 µM (top of the series) unless noted; note: nearly all actives have a fitted effect of over 60% in size
Outline: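 Kinetic colorimetric format: TGR-catalysed, NADPH-driven DTNB reduction monitored via TNB absorbance. Enzyme dispensed at 20 nM; compound exposure 15 min at room temperature before reaction start.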
% is set by controls: 0 for no effect and ±100 for the full control effect; potency is the fitted concentration of half-maximal effect; tags give direction and shape of the fitted curve.

SMILES | Potency | activity change, negative = inhibition
CSc1sc(-c2ccnc(SCC(=O)C(C)(C)C)n2)c2c1C(=O)CC(C)(C)C2 | inconclusive [inhibitor, partial curve] | –
Cc1ccc(OCC(=O)N/N=C\c2cccn2C)c([N+](=O)[O-])c1 | – | inactive: 1.8%
COc1cc(C(c2nnnn2C2CCCC2)N2CCN(C)CC2)cc(OC)c1OC (stereo not drawn) | – | inactive: -5.12%
COc1ccc(C2=C(N3CCN(c4cccc(C)c4)C(C)C3)c3ccccc3C2=O)cc1 (stereo not drawn) | inconclusive [inhibitor, partial curve] | –
COc1ccccc1CNC(=O)c1ccc(-c2ccccc2Cl)o1 | inconclusive [inhibitor, partial curve] | –
O=C(c1ccc(Br)cc1)C(CN1CCOCC1)c1ccccc1 (stereo not drawn) | active: 3.55 µM | –
COc1ccc(CCNCC(O)COc2cccc(C(C)=O)c2)cc1OC (stereo not drawn) | inconclusive [inhibitor, partial curve] | –
CCCN1C(=O)/C(=C/c2ccc(C)s2)NC1=S | inconclusive [inhibitor, partial curve] | –
CN(C)S(=O)(=O)c1cccc(NC(=S)NCc2ccc3c(c2)OCO3)c1 | inconclusive [inhibitor, partial curve] | –
Cc1cc(N2CCN(C)CC2)nc2ccc(NC(=S)NCCCN3CCc4ccccc4C3)cc12 | inconclusive [inhibitor, partial curve] | –
COc1ccc(CNC(=O)Nc2ccc3c(c2)N(C)C(=O)c2ccccc2S3)cc1OC | inconclusive [inhibitor, single point] | –
O=C(Nc1cccnc1)c1cc(-c2ccccc2)on1 | – | inactive: 0.862%
Cc1ccc(CNC(=O)c2c(-c3ccccc3Cl)noc2C)o1 | inconclusive [inhibitor, partial curve] | –
C=C(C)CSc1nc2sc3c(c2c(=O)n1-c1ccc(C)cc1)CCN(C)C3 | – | inactive: -32.5%
CCOc1ccc(NC(=O)CSc2nnc(-c3ccc(OCC)cc3)o2)cc1 | inconclusive [inhibitor, single point] | –
CCC1CCCCN1C(=O)CSc1nnc(-c2ccco2)o1 (stereo not drawn) | inconclusive [inhibitor, partial curve] | –
Cc1cc(S(=O)(=O)NCC(c2ccco2)S(=O)(=O)c2cccs2)ccc1F (stereo not drawn) | inconclusive [inhibitor, full curve, poor fit] | –
CN(C)S(=O)(=O)c1ccc(N/C=C(\[N+](=O)[O-])S(=O)(=O)c2ccccc2)cc1 | active: 14.1 µM | –
O=c1[nH]c(/C(Cl)=C/c2c(F)cccc2Cl)nc2cc(Cl)ccc12 | – | inactive: 0.343%
O=C1C(=O)N(CCN2CCOCC2)C(c2ccc([N+](=O)[O-])cc2)/C1=C(/O)c1ccc2c(c1)OCO2 (stereo not drawn) | inconclusive [inhibitor, partial curve] | –
CCCCCCCCCCC[N+](C)(C)CC/C=C1/c2ccccc2Sc2ccc(Cl)cc21 | active: 1.78 µM | –
CC(=O)c1ccc(NS(=O)(=O)c2ccc3[nH]c4c(c3c2)CCCC4)cc1 | – | inactive: -0.902%
CCOC(=O)CSC1=C(C#N)C(c2ccco2)C(C(=O)OCc2ccccc2)=C(C)N1 (stereo not drawn) | inconclusive [inhibitor, partial curve, poor fit] | –
Cn1c(-c2cccs2)nc2ccccc21 | – | inactive: -0.469%
CCOc1ccc2c(c1)nc(SCC(=O)c1cccs1)n2C | inconclusive [inhibitor, partial curve] | –

SMILES | Potency | activity change, negative = inhibition
O=c1c2cc(NC(=S)NC3CCCC3)ccc2nc2n1CCCCC2 | inconclusive [inhibitor, partial curve] | –
Cn1cc(NC(=O)CCl)cn1 | inconclusive [inhibitor, full curve] | –
COc1ccc(OCc2ccc(/C=N\NC(=O)c3sccc3C)o2)cc1 | inconclusive [inhibitor, partial curve, poor fit] | –
CN(c1ccccc1C(=O)NCc1ccco1)S(C)(=O)=O | active: 39.8 µM | –
Cc1ccc2c(C)c(C(=O)N(C)C(C)c3ccon3)oc2c1C (stereo not drawn) | inconclusive [inhibitor, full curve, poor fit] | –
Cc1cc2ncn(C3CC(=O)N(Cc4ccc(N5CCCC5=O)cc4)C3=O)c2cc1C (stereo not drawn) | inconclusive [inhibitor, single point] | –
CC(=O)CCN1CCOCC1 | inconclusive [inhibitor, partial curve] | –
COc1ccc(C2C(C(C)=O)=C(C)Nc3ncnn32)cc1 (stereo not drawn) | active: 35.5 µM | –
Cc1ccc(-c2nn(-c3cccc(F)c3)cc2CN2CCN(c3ccccn3)CC2)o1 | inconclusive [inhibitor, partial curve] | –
CC1(C)C(N(O)C(=O)Nc2ccc(Cl)cc2)N(c2ccc(Cl)cc2)C(=O)N1CC(=O)NN (stereo not drawn) | – | inactive: -16.2%
Cc1ccc(C(=O)O/N=C/c2c(C)nn(C)c2Cl)cc1 | – | inactive: 7.59%
COc1ccc(OCc2cc(C(=O)N3CCCC(O)C3)no2)c2ccccc12 (stereo not drawn) | inconclusive [inhibitor, partial curve] | –
CN(Cc1ccc(Br)cc1)C(=O)CCN1C(=O)c2cccc([N+](=O)[O-])c2C1=O | inconclusive [inhibitor, full curve] | –
C[C@H](O)c1[nH]c2cc(F)ccc2c1[C@H](C)O | inconclusive [inhibitor, partial curve] | –
CC(C)[C@H](NC(=O)N1c2ccccc2NC(=O)[C@@H]1C(C)C)C(=O)N1CCC[C@H]1C(=O)O | – | inactive: 6.71%
C/C(CC(=O)Nc1ccc(C)c(Cl)c1)=N\NC(=O)c1ccncc1 | inconclusive [inhibitor, full curve, poor fit] | –
COc1ccc(C2Nc3cccc4cccc(c34)N2)cc1Br | active: 25.1 µM | –
O=C(CSc1nnnn1C1CCCC1)c1ccc2c(c1)OCCO2 | inconclusive [inhibitor, full curve] | –
Cn1c2ccccc2c2cnn(CC(=O)N3CCN(c4cccc(C(F)(F)F)c4)CC3)c(=O)c21 | – | inactive: 1.12%
Cc1csc2nc(O)c(C(=O)NCC3CCCO3)c(=O)n12 (stereo not drawn) | – | inactive: -1.9%
CCC(CC)C(=O)Nc1ccc2nc(SCC(=O)N3CCc4ccccc43)sc2c1 | – | inactive: 3.02%
Cc1nn(-c2ccccc2)c2nc(-c3ccncc3)cc(C(=O)NCc3ccco3)c12 | active: 44.7 µM | –
COC(=O)c1ccccc1NC(=O)CSc1nc(Nc2ccccc2)nc(N2CCOCC2)n1 | – | inactive: -2.16%
COc1cccc(NCCC(=O)c2cccc([N+](=O)[O-])c2)c1 | inconclusive [inhibitor, full curve, poor fit] | –
COc1ccc(-c2nc(CS(=O)CC(=O)NCCc3ccc(C)cc3)c(C)o2)cc1OC (stereo not drawn) | active: 39.8 µM | –

SMILES | Potency | activity change, negative = inhibition
CN(C)C(/C=C/Nc1ccc(F)cc1)=C(C#N)C#N | inconclusive [inhibitor, full curve, poor fit] | –
Cc1ccc(C)n1-c1ccc(N2CCOCC2)c([N+](=O)[O-])c1 | active: 35.5 µM | –
COc1ccc(-c2n[nH]c(=S)n2-c2ccccc2C)cc1 | – | inactive: 1.18%
CCN(CC)/C(Sc1ccccc1)=C(\C(Cl)=C(Cl)Cl)[N+](=O)[O-] | active: 22.4 µM | –
O=C(Nc1ccccc1)c1nnsc1S(=O)c1ccc(Cl)cc1 (stereo not drawn) | active: 0.1 µM | –
O=C1Cc2cc(CCN3CCN(c4nsc5ccccc45)CC3)c(Cl)cc2N1 | inconclusive [inhibitor, full curve] | –
Cc1ccc(NC(=O)CCC(=O)c2cc(C)sc2C)nc1 | inconclusive [inhibitor, partial curve] | –
O=c1cc(O)n(-c2ccc(Cl)cc2)c(=S)[nH]1 | inconclusive [inhibitor, full curve] | –
CCNC(=S)Nc1ccc(-c2nc3ccccc3[nH]2)cc1 | inconclusive [inhibitor, partial curve] | –
O=C(CCC(=O)c1cccs1)NCc1cccnc1 | – | inactive: 0.488%
COc1ccc(-c2nc(CS(=O)(=O)CC(=O)Nc3ccc(Cl)cc3)c(C)o2)cc1 | active: 35.5 µM | –
N#Cc1c(NCCCO)nc(-c2ccco2)c2c1CCCC2 | active: 6.31 µM | –
Oc1ccc(N=Cc2cc(Br)c(N3CCOCC3)o2)cc1 | active: 17.8 µM | –
Cc1nnc(SCc2nc3ccccc3s2)n1N | – | inactive: 12.9%
Cc1ccc(C)n1Cc1ccccc1Cl | inconclusive [inhibitor, partial curve] | –
Oc1ccc(/C=N/N2CCCCC2)cc1O | active: 2.82 µM | –
CN(C)/C=C(\C=O)c1ncc(C(F)(F)F)cc1Cl | inconclusive [inhibitor, partial curve] | –
O=C(Nc1ccc(S(=O)(=O)Nc2cnc3ccccc3n2)cc1)c1ccc(Br)o1 | inconclusive [inhibitor, partial curve] | –
CC(CCc1ccco1)NC(=O)Cn1ncc2c1-c1ccccc1OC2 (stereo not drawn) | active: 50.1 µM | –
CCCN(CC(=O)Nc1ccccc1C)C(=O)c1ccc(N2CCCC2)c([N+](=O)[O-])c1 | – | inactive: -2.53%
NS(=O)(=O)c1ccc(NC(=S)NNC(=O)c2ccc(Br)o2)cc1 | inconclusive [inhibitor, partial curve, poor fit] | –
O=C(c1ccc2c(c1)N(Cc1ccccc1F)C(=O)c1ccccc1S2(=O)=O)N1CCN(c2ccccc2F)CC1 | inconclusive [inhibitor, single point] | –
C=CCn1c(SCC(=O)c2ccc(CNC(C)=O)o2)nc2ccccc2c1=O | inconclusive [inhibitor, partial curve] | –
